Measurements: publication PMC13046382, “Peptidoglycan recycling is critical for cell division, cell wall integrity, and β-lactam resistance in Caulobacter crescentus” (eLife, 2026)

Target: T1, BlaA (Caulobacter vibrioides, UniProt Q9A6F5)
T1 construct: gene CC_2139
Details: C. crescentus cells in PBS, 30 °C

## O=C(Cc1cccs1)N[C@@H]1C(=O)N2C(C(=O)O)=C(/C=C/c3ccc([N+](=O)[O-])cc3[N+](=O)[O-])CS[C@H]12 [nitrocefin]
  chromogenic hydrolysis, absorbance at 482 nm: incubated cells with the chromogenic β-lactam nitrocefin
